Assay results taken from the supplement of paper PMC4466236.
In all, about 33,000 sequences were measured (“E-score (dimensionless, -0.5 to 0.5)”: median about -0.058, highest 2% from about 0.35 on). This is one part of the list.

The sequences below were run on MvaT (assay: PBM 8-mer E-score (mean of HK and ME arrays) (E-score (dimensionless, -0.5 to 0.5)); higher = stronger relative binding preference; most listed sequences are background and not binding sites).
In short: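 Full-length P. aeruginosa MvaT carrying an N-terminal glutathione S-transferase tag was tested by protein binding microarray following a previously described protocol. Two universal double-stranded 60-mer arrays, ME and HK, were used, each with a constant 25-mer primer region and a variable 35-mer region covering all 8-mers. The rank-based E-score is the mean of the two arrays, parsed with a custom script. Its range runs from -0.5 to 0.5 for each 8-mer.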

Sequence	PBM 8-mer E-score
CCATGCGA	-0.151
CCCGCCCC	-0.361
ATCACTAA	0.0111
AATGAGTG	0.16
ATGCGGTC	-0.13
CTGATCGC	-0.167
ACATCTCG	-0.0682
AGGCATTC	-0.0959
AAGGATGC	-0.172
CCTGCTAG	-0.279
ACCACCGG	-0.167
CAGCAAGC	-0.204
ACTCACTC	-0.0877
CACCACTC	-0.0842
GTCACGCA	-0.102
CCATACAG	-0.141
ACCCCTGG	-0.306
ACTATAGA	0.127
AGCGGCAA	-0.023
GAGCCCCA	-0.336
AATTGAAC	0.155
CGAGCTTC	-0.313
AGCGCGCA	-0.0694
AATCCCTC	-0.138
AGTTCAAG	0.147

Sequence	PBM 8-mer E-score
ACCATCTA	0.132
GCCTATGA	-0.24
CCATACTC	0.0987
AAGTTGAA	0.268
CATTTGCA	0.144
AGAACCTA	-0.105
ATGTCTCG	0.00952
AATGCGAA	0.0409
GTACGTAA	-0.00701
AACAGAGT	0.0809
ACCTTACT	0.0694
TAAGGCGA	-0.0716
GATGGATA	0.126
CCCAAGAA	-0.148
ATAACTCG	0.255
GTTATAAC	0.434
GGTAAACC	-0.0221
GCCATAAA	0.185
AATCCAAT	0.147
TCCACCCA	-0.118
GAGAGTCA	-0.341
ACGGGATC	-0.22
TGTGAGAA	0.0468
CGGCCCCC	-0.317
CTTTAGGA	-0.104

Sequence	PBM 8-mer E-score
TGTTGAAA	0.23
CTAACCCA	-0.0114
TAAGTCTA	0.132
GCACTGAA	-0.03
ATCAGCTC	-0.144
ATGTAGTA	0.259
ACCATCAT	0.138
GTTAAATA	0.396
GGGATTTA	0.11
ATGAGCTA	-0.14
AAGCTGTG	-0.172
GCCGCTAC	-0.0886
AGTATGTG	0.209
CACGTAAC	0.0727
CAGCACGA	-0.15
GAACGGCA	-0.0405
ATTTCTAA	0.232
AGCGCGAC	-0.125
CCCAGAAC	-0.0307
ATTGGGTC	-0.0304
CTAGCTAA	-0.167
ACCGCTCG	-0.195
GTTGAGTA	0.0405
CCATAACA	0.184
AGTCTTAA	0.0858

Sequence	PBM 8-mer E-score
CATCAAGC	-0.188
AGTCCAGC	-0.172
ATTCGGCA	0.114
AATCCTAC	-0.0823
ATGAAACC	-0.179
CGAGGTTC	-0.303
AGGTTACC	-0.212
CGATTCCA	-0.0397
AACATTCC	0.166
AACCTTTG	0.0371
GGCCGCCC	-0.367
GGTTAACC	-0.0887
AAGCGTCA	-0.00559
CGGAGTTC	-0.106
AATTGTGA	0.168
AGTCCCAA	-0.0646
GACGTAAC	-0.0078
GTGTAGGA	-0.118
AGATTGAC	-0.15
AAATTATC	0.318
CGTTTGAC	-0.0853
ACAGGCGC	-0.258
AGCAGAAG	-0.118
GAAGGATA	0.0386
GCGGGTTA	0.0558

Sequence	PBM 8-mer E-score
GAGCGCAA	0.0314
TCGTATCA	0.0351
CGAGTCAC	-0.21
CCGCGAGA	-0.101
ATTTCTAG	0.0898
ACCCAGGA	-0.12
CCCACATA	0.0562
CAGTTCAA	0.0238
AACCAAAA	0.167
GAACAAAA	0.114
TCTTTGAA	0.164
CACTATCA	0.228
TAGGCTAA	0.109
GTAGTGAA	0.0128
CGCTCCGC	-0.285
CCAGCACA	-0.0695
CACAAGTG	-0.123
AATCTGCA	-0.121
CACGCGAA	-0.0648
AGAGGTAT	-0.012
ATCCTTTA	-0.00829
ATTTATGA	0.244
ACGGTTAA	0.0361
ATGATCGG	-0.174
GTGTATGA	0.14

Sequence	PBM 8-mer E-score
GCACGTAC	-0.123
ACACTTTC	0.0457
ATACAAAA	0.304
ATGCGAGC	-0.16
ACTCTGCT	-0.0232
CCACACTC	0.0812
CATAGGGA	-0.132
CCCCCTCA	-0.314
GCTGTGTA	0.0384
CTCTAAGC	-0.0611
ACAAAGAC	0.25
CCGAATAG	-0.0201
ACGCAGTG	-0.257
ACCCCAAC	-0.1
ACGTGGAT	-0.07
CATCAGTC	-0.138
ACCTAGGC	-0.191
AAGCTCTC	-0.117
AGTGGGGA	-0.22
TTCCCGAA	-0.041
TCCTACGA	-0.0392
ACGCTATA	0.136
ATATTTTG	0.319
ACTGTGTA	0.0823
AGTTACTC	0.114

Sequence	PBM 8-mer E-score
CCCGTATA	0.0432
ATGTCTCA	0.207
AAATTGAC	0.166
CCTTTTAG	0.0919
GCACATCC	-0.186
CGTTCCGA	-0.219
ACCCTACG	-0.135
AGTCATAC	0.0573
ACCGGGAT	0.0262
ACAAAGAT	0.214
AGGCTGTA	-0.0981
CGTACCCC	-0.312
GTCGCAAA	0.0316
ATCCTCTC	-0.177
GGGAGGCA	-0.285
AATTCCTA	0.0589
CTAGGCAG	-0.255
ACATTATC	0.218
CGACCAGC	-0.278
CCACAACA	0.23
ACACCGGT	-0.107
ACATGGAA	0.125
GAGTCACA	-0.213
ACGGTACC	-0.0346
ATGTACAA	0.318

Sequence	PBM 8-mer E-score
CTATGCAA	0.0651
CTCCAGTA	-0.0483
ACAATATA	0.425
TAACCAGA	0.0185
ACTGCCAT	-0.146
CGCTCCTC	-0.262
CGCCTTTC	-0.0958
GGATACCC	-0.253
CGCGTCCA	-0.129
ATAAATGA	0.316
AGACGAAA	0.0661
CCAGCGCC	-0.312
AATCCCAT	-0.0767
CGAGATCG	-0.213
GATCCCGC	-0.191
TAATTGAA	0.252
CCGAGTCC	-0.234
AAGATGCA	-0.0197
CGGGCAAC	-0.166
GTACCACA	-0.151
CATAATAG	0.318
ACGCCTGG	-0.174
GTTTTTTA	0.248
AGCTTCAT	-0.108
CGACCCGC	-0.11

Sequence	PBM 8-mer E-score
CCATATCA	0.122
CACTCGGC	-0.142
AGTCTTTC	0.0268
CCTCGGGA	-0.325
AACTACTC	0.131
CCGGTAGG	-0.273
GCTTCTCA	-0.254
AAGCGAAT	0.024
AACTTTAC	0.275
ATGCACCA	-0.0306
GTCTAGTA	-0.038
ATGGCTGC	-0.133
ACGGAACG	-0.144
ACTAGTTA	0.345
CCTAATAC	0.104
TCAGAAGA	-0.0321
CGCAAACA	0.0458
CTTATAAA	0.377
ACGACCGC	-0.178
